Laboratory results from article PMC6212790.
Some of the results follow. At the low end of the ranking, values are background and their order means little.

Molecular target: T1, GST-Rok-C97-191 (UniProt O34857)
T1 sequence: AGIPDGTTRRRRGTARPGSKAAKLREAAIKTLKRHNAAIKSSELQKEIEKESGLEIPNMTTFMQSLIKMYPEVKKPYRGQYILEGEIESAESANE
Assay: protein binding microarray;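 further: rank score from −0.5 (least bound) to 0.5 (best bound)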
Details: Rok is a gene silencer of Bacillus subtilis; high values mean tight binding; most listed sequences are background and not binding sites; double strand, one strand shown

Sequence	binding signal [E-score]
CCTCATCA	-0.117
CAGTAGTA	0.362
AGCACCTG	-0.227
AAAGCAGC	-0.121
CAAAGAGG	-0.0617
ATCGTATC	0.235
AGGTAACA	0.0028
CCATGAAA	-0.0976
ACGGCCGA	0.0172
ATGGACGC	-0.141
TATGTCCA	0.206
GTGCCCTA	-0.193
CCATACCG	-0.0056
GGGGACAA	-0.259
AGCCACCT	-0.127
CCACCCCC	-0.242
GGTTCAAA	-0.0372
ATCACCAA	-0.028
GATTTAAA	0.0253
CAAATGTG	-0.0251
GTACCCTA	-0.0812
GACTCTAA	0.0824
CGGACACC	-0.255
AAAACCGG	-0.0633
ATTATACG	0.388

Sequence	binding signal [E-score]
AGGCAACC	-0.0941
CTTCAGTC	0.00258
CGAACTAG	0.299
CGCACGAG	-0.396
GCTCGACA	-0.145
ACCTCCCG	-0.064
GCTCGGAA	-0.258
CTTCCCAC	-0.058
GAGGGACC	-0.173
CTTCCTTA	-0.0924
CGCGTGTA	0.0288
ATTTGCTG	-0.0116
CCCAATTC	-0.0119
ATGCCTAA	-0.0672
ACACGGTG	-0.194
CTGTAGTA	0.279
ACGAGAAC	-0.128
AAGTAGAG	0.0923
GTTATCCA	0.165
CACCTGAA	-0.203
TATCGTGA	0.211
AACACCTT	-0.132
ATGATAGA	0.36
CGAGAATA	0.142
ACCTTCTA	0.212

Sequence	binding signal [E-score]
TCAGGCGA	-0.0467
TATTTGAA	-0.00477
ACCCTGTG	-0.188
ACCGCTGA	-0.178
AACCAAGA	0.0903
ATACTGCG	0.0317
CGGACCAG	-0.182
ACACATCA	-0.1
CTTCGTAC	0.112
CGCGAGTC	0.000606
CCACACAA	0.034
CCCGACTC	-0.286
CGTGCTGC	-0.0586
ATCAGAGC	-0.198
CGGACTAA	0.124
CATAGGGG	-0.167
GGTGCGCA	-0.104
AAGGGAAG	-0.114
ACACCCAA	-0.101
ACAACGCG	0.0131
AAATTTGT	0.33
CAACATCC	0.0587
GGCCCCTA	-0.312
GTGGTAAA	0.21
CCACCGTA	-0.0888

Sequence	binding signal [E-score]
AAAGCAGA	0.105
AACCAAAG	-0.0949
AAAAAGGG	-0.153
CTAACTCA	0.161
TATTAACA	0.262
AAGGGTTC	-0.214
GTCAGCCA	-0.122
AGATATCC	0.00982
GCGCAAAA	-0.0364
AGGCTTGA	-0.168
TACCATCA	0.0543
ATATGGGA	0.146
CAGCGAGC	-0.103
CGCATATC	0.198
CCAAATTC	-0.0104
GACGATCA	-0.281
AGGGGTCA	-0.143
ACGTTCTC	-0.00213
TATAATCA	0.232
CGCTAAAC	0.142
AGCCCAAA	-0.103
GTAAGCCA	-0.0686
AAATGACA	0.0262
CCAGTTCC	-0.227
GTGATCCA	0.0337

Sequence	binding signal [E-score]
ATTGTTGG	0.00149
CCAACTAG	0.147
CGTCGGAA	-0.0465
ACGTAAGT	-0.0408
CAATAAGG	0.0957
TCGCCCAA	-0.12
CGTGCAAG	-0.0991
TTATTCAA	-0.151
AATGTATA	0.35
GAAGGTCA	-0.000904
AGCATACC	0.0391
CCTGCTAG	-0.24
AGCTGCCG	-0.25
ATCCTACG	0.00735
CATGCGCA	-0.165
ATTCATGG	0.00457
ACAGCGGT	-0.273
ACCCTCAT	-0.00647
AAGGTCAG	-0.0443
GCGCTTAC	0.0403
AACCTGTG	-0.0172
CCGAGTCA	-0.186
GAAACGCA	-0.276
AGTGAGTA	0.119
CTAGACCA	-0.196

Sequence	binding signal [E-score]
CAAGATAA	0.084
ACATCAAG	-0.0361
ACCGCAAA	-0.0242
AAAACCGC	-0.26
AATTCGTC	0.0658
GGATCGTA	0.0309
GGGTGACA	-0.0751
AAAGGTGC	-0.0147
GCAACAAA	0.132
CTTTTCAA	0.048
TAGACACA	-0.0912
CTTCAAAG	-0.117
ATATAAAA	0.338
ATACAAGC	0.133
AGTAAGGG	-0.154
CAGTCACA	-0.157
CCAACGTA	0.161
AACGAATG	0.0308
CAACTGGG	-0.245
CCTATCCG	-0.175
GTAAATGA	0.0342
CCATGCGA	-0.237
AATGCGCG	-0.0163
CGCACCAC	-0.22
ACCTTTGG	-0.152

Sequence	binding signal [E-score]
CCAACGAG	-0.182
GCGCCATA	-0.125
ACAGAGAG	-0.125
CTCACAGA	-0.0733
ACTGGAGA	-0.171
GCAGATGA	-0.12
CTTAAGCC	-0.261
AAGGTCTG	-0.194
CCTGAAGA	-0.0241
GCCTCAGC	-0.245
GCATGTCA	-0.16
CAGCAATC	-0.0945
CGGTGGAC	-0.316
CTCCGTTC	-0.0125
GCCTGCCC	-0.294
CGTACGTA	0.05
ACACCCGC	-0.182
CGACAGAC	-0.0745
TGGCACCA	0.0295
CCCCGGCC	-0.298
CAATAAAG	-0.113
AGGATTAG	0.114
ATACGGTG	0.081
AAGGGCCC	-0.234
CAATCGCG	-0.0322

Sequence	binding signal [E-score]
ACAGATTC	0.125
CAACGTTG	0.059
ACAGTTCC	0.0309
TCCCGTAA	0.148
ATATTGCC	0.109
AAAGTTAA	-0.0842
CGATTCAC	-0.0667
GGAGCGAC	-0.18
CTCACACC	0.0115
CTTAATTA	0.276
ACCACCGG	-0.0384
ATTCTGTG	0.13
CTAATGGA	-0.0716
CAGTAGAG	0.0442
AGAATTTA	0.279
GCTTGACA	-0.145
GAGGCTGC	-0.255
ATACGCCG	-0.0507
CTATCCAG	0.0084
CGGGTGTC	-0.188
CCTTACGA	0.0118
CCGGCCGA	-0.088
ACATTATA	0.269
CTTGTCCA	-0.139
CCCAAGAA	-0.0746

Sequence	binding signal [E-score]
TAAAGTAA	0.00779
TTCGTCAA	-0.114
GAGCACGA	-0.282
CTAGTTGA	0.2
CAATGCCA	-0.133
ACTCTCCG	-0.316
CTCGTCTC	-0.134
AGTTGCGC	-0.017
ACGTCTCA	-0.211
CGTACCGA	-0.1
AAGGTGAC	-0.167
ACACGCCC	-0.129
GAGACGGA	-0.0409
TAGGGGAA	-0.22
ATCTCCCG	-0.0519
AGCTCGGG	-0.116
CCAAACTC	-0.0249
ATCAACGG	0.162
CACCCCGA	-0.0102
GCATCAGA	-0.0826
GGTGATTA	-0.0126
AATAAGGA	-0.0779
GCCAAGGA	-0.186
ACGCTGCA	0.0486
TCATCCAA	-0.0946

Sequence	binding signal [E-score]
AACCTTAA	-0.0493
ACGAGAGG	-0.252
CGCAACTA	0.207
AGTCTGGA	-0.00732
CATCCTAA	0.0462
TCCAGTCA	-0.0754
GCATAAGA	-0.0154
GATTACAC	-0.0687
TGACGGCA	-0.227
TCGTCAGA	-0.0729
GCGCGGGA	-0.18
ACGCACGA	-0.0883
GTCTTCGA	-0.174
AGCTATAT	0.308
GACGATCC	-0.0848
ATCGCAGC	0.0323
GTGGGGAA	-0.153
CGGAGTAG	0.00552
GTCATTCA	-0.00123
ATGATGAG	0.0828
ACCTTTTC	0.00844
ACCTGTTC	-0.0432
ACTTAGGC	0.00568
CAGAGGCC	-0.296
ACGGACGA	-0.135

Sequence	binding signal [E-score]
TAATCAAA	0.0224
CCGATGAC	-0.00415
CCTGAGAA	-0.132
CATTAGTC	0.0362
GGCGGACA	-0.298
GCATCGGC	-0.158
GCTTATAC	0.242
TGAAGGCA	-0.0997
ACCCACAT	0.112
CTAAACGA	-0.0375
TGACCAAA	-0.053
CGCCAAGC	-0.218
AAGTATAG	0.171
CCCTAGAC	-0.31
AACACCTC	0.0204
ATCTGCTG	0.0272
GGGCGAAA	-0.0243
AATATATG	0.337
ACGCTAGC	-0.0173
CGTTGACA	-0.179
CGTTCACC	-0.0907
CCCTTAGC	-0.227
CCGTCATC	-0.113
CAATGTGG	0.000784
AGTCTCCG	-0.173

Sequence	binding signal [E-score]
CCGGTGAG	-0.153
TATTCCCA	0.217
CGGAAGCA	-0.174
GAGCAAAC	-0.163
TCGAACAA	-0.0451
AACAGATA	0.192
CTTCTACC	0.348
CAGCCATG	-0.126
ACAGTAAT	0.32
AACGATCC	0.163
ATACCCAT	0.25
GCGGTAGA	0.278
CGGGGGAC	-0.203
CGTGCGAA	-0.0747
GATCGTTA	0.107
ACGGCGAC	-0.291
AGTCTCAA	-0.137
GGGAGCGA	-0.294
AAAACCCC	-0.179
GCTATAGA	0.023
CCTAGAAG	-0.0621
GTAGGGTA	0.133
GGAGTTAC	0.0244
AGGTCTCA	-0.0666
CCTACTAG	0.18

Sequence	binding signal [E-score]
GGGGCTCA	-0.369
CACGAGAG	-0.169
CTCCGTCA	-0.244
GTCTATCA	-0.0797
AGCTAGAG	0.0924
AGGGCTAT	0.0863
ACCAGCGC	-0.192
ACGGGCCC	-0.309
ACAACCTA	0.137
CATCTTCC	-0.196
CATGAAGC	-0.256
TAGAGAGA	0.0622
CATAACTC	0.0989
ATCGTCCA	-0.0547
CCGAGAAA	0.0915
AGTATCTA	0.351
CGACTGGA	-0.0736
ATGTCTGC	-0.0934
AAATCTAT	0.4
CGGAGGGA	-0.205
GCTCTTCC	-0.284
ATGAGTTC	-0.1
CCACTGGG	-0.271
TCTTCTAA	0.0806
AAACCGGG	-0.214

Sequence	binding signal [E-score]
ACGGGATA	0.00783
TAATGTGA	0.171
CAACCGCA	-0.0623
GGAGGAAC	-0.069
AAACGACC	-0.0936
AGCAAGTG	0.102
AACTAATC	0.129
ATAGGGTC	0.13
GAAAATCA	0.0193
CGAGCCAA	-0.127
ACACGATC	0.00401
CGAGTCAC	-0.176
GATTCTTA	0.133
ACACGTTG	-0.142
CCCCTTCC	-0.354
CCGCTTCA	-0.195
ACATTGAG	0.031
CTTATCAC	0.102
ATCTGAAA	0.000445
